Substitutions are numbered along the chain they refer to. One block for each molecule: values may come before it.
Tests used:
[1] = target: T1, Human ENTPD1 (Homo sapiens, UniProt P49961); test: Cross reactivity: FACS binding to human ENTPD1 expressing NIH/3T3 cells; conditions: NIH/3T3-ENTPD1 cells; for Apparent FACS binding at 50 nM: 50 nM antibody
T1 construct: expressed in transfected cells; host or cells: NIH/3T3 (retroviral transduction, FACS-sorted)
T1 sequence (P49961 1-510): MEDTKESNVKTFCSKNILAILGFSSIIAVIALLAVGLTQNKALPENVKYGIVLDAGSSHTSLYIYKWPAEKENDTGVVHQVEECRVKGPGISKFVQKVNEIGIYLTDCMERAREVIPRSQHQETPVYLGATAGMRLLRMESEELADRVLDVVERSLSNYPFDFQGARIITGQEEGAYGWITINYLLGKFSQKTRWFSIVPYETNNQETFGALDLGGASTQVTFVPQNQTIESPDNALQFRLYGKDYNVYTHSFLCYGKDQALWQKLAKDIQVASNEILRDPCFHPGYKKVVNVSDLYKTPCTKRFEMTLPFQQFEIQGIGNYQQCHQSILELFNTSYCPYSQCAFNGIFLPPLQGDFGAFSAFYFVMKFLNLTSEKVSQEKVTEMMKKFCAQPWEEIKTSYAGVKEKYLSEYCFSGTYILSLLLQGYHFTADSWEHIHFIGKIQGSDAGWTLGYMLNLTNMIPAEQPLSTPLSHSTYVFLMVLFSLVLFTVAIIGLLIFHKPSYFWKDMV
Experimental: (§1) FACS screening: Specific binding of candidate antibodies to endogenously expressed ENTPD2 was assessed by flow cytometry. Cells were rinsed thoroughly with 1×PBS and treated with Accutase (Millipore #SCR005) to lift from growth plates and resuspended at approximately 1×10^5 cells/90 μL in 1× FACS buffer (2% FBS+0.1% NaN3 in PBS). In a 96-well U-bottom plate, 10 μL of 10× antibody solution in FACS buffer was pre-seeded and 90 μL of cell suspension was added. Cell were incubated for 30 minutes at 4° C., washed 1× with cold PBS and resuspended in 100 μL of 1:500 secondary antibody 1× FACS buffer (Allophycocyanin conjugated F(ab′)2 goat anti-human IgG, Fcγ specific; Jackson Immunoresearch, Cat#109-136-098). After additional incubation for 15 min at 4° C., cells were washed twice with PBS and resuspended in 100 μL of 1×FACS buffer with 4 μg/mL propidium iodide (Life Technologies, Cat#P3566). Geometric mean fluorescence intensity was calculated on live single cells using FlowJo software.
(§2) Cross reactivity Human ENTPD1 (NP_001767) expressing NIH/3T3 cells were generated using a retroviral transduction approach. 72 hrs post transduction, engineered cells were stained with the anti-Human CD39/ENTPD1 APC-conjugated Antibody (R&D systems, Minneapolis, Minn.) and live cells that expressed human ENTPD1 were separated from the rest of the population via fluorescence activated cell sorting. Stable expression of ENTPD1 was periodically re-confirmed by FACS with the above described anti-Human CD39/ENTPD1 APC-conjugated Antibody (1:100).

[2] = test system: H520 cells; test: Cross reactivity: FACS binding to H520 cells (ENTPD3 and ENTPD8 expression); parameters: species or system human; conditions: 50 nM antibody
Experimental: as §1
H520 cells were identified as a cancer cell line with ENTPD3 (Ct 25) and ENTPD8 (Ct 26) expression by Taqman and were used for selectivity screening.

[3] = test system: NIH/3T3 cells; test: Cross reactivity: FACS binding to NIH/3T3 control cells; conditions: 50 nM antibody
Experimental: as §1, §2

Apparent FACS binding ([1]; cell printed as a bound in nM): >100 nM
B1: ANTI-HUMAN ENTPD2 MAB8 (antibody)
heavy: QVQLQQSGPGLVKPSQTLSLTCAISGDSVSSSSAAWNWIRQSPSRGLEWLGRIYYRSKWYNDYAVSVKSRITINPDTSKNQFSLQLNSVTPEDTAVYYCARGSYVTSSYEGFDYWGQGTLVTVSSASTKGPSVFPLAPSSKSTSGGTAALGCLVKDYFPEPVTVSWNSGALTSGVHTFPAVLQSSGLYSLSSVVTVPSSSLGTQTYICNVNHKPSNTKVDKRV[here human IgG1 Fc without letters]
light: SYELTQPLSVSVALGQTARITCSGDNLPEKYAYWYQQKPGQAPVLVIYDDNKRPSGIPERFSGSNSGNTATLTISRAQAGDEADYYCQSYGKWGWTWVFGGGTKLTVLGQPKAAPSVTLFPPSSEELQANKATLVCLISDFYPGAVTVAWKADSSPVKAGVETTTPSKQSNNKYAASSYLSLTPEQWKSHRSYSCQVTHEGSTVEKTVAPTECS
Apparent FACS binding at 50 nM [2]: No binding
Apparent FACS binding at 50 nM [3]: No binding

Apparent FACS binding at 50 nM [1]: No binding
B2: ANTI-HUMAN ENTPD2 MAB3 (antibody)
heavy: QVQLVQSGAEVVKPGASVKISCKASGYTFTDYNMDWVKQAPGQRLEWIGDINPKYDISTYNQQFKGKATITVDTSASTAYMELSSLRSEDTAVYYCARRGFFLYYGINYYYFDVWGQGTLVTVSSASTKGPSVFPLAPSSKSTSGGTAALGCLVKDYFPEPVTVSWNSGALTSGVHTFPAVLQSSGLYSLSSVVTVPSSSLGTQTYICNVNHKPSNTKVDKRV[here human IgG1 Fc without letters]
light: EIVLTQSPATLSASPGERITLSCSASSSVSYIHWYQQKPGQAPRLLIYSTSNLASGIPARFSGSGSGTFYTLTISSVEPEDAAVYYCHQWSSYPWTFGGGTKLEIKRTVAAPSVFIFPPSDEQLKSGTASVVCLLNNFYPREAKVQWKVDNALQSGNSQESVTEQDSKDSTYSLSSTLTLSKADYEKHKVYACEVTHQGLSSPVTKSFNRGEC
Apparent FACS binding at 50 nM [2]: No binding
Apparent FACS binding at 50 nM [3]: No binding

Apparent FACS binding at 50 nM [1]: No binding
B3: ANTI-HUMAN ENTPD2 MAB2 (antibody)
heavy: B2 heavy with T74K
light: B2 light
Apparent FACS binding at 50 nM [2]: No binding
Apparent FACS binding at 50 nM [3]: No binding

Apparent FACS binding at 50 nM [1]: No binding
B4: ANTI-HUMAN ENTPD2 MAB9 (antibody)
heavy: QVQLVQSGAEVKKPGSSVKVSCKASGGTFDSYAVSWVRQAPGQGLEWMGRIVPWLGHTQYAQKFQGRVTITADESTSTAYMELSSLRSEDTAVYYCARESPGYRYSFDVWDQGTLVTVSSASTKGPSVFPLAPSSKSTSGGTAALGCLVKDYFPEPVTVSWNSGALTSGVHTFPAVLQSSGLYSLSSVVTVPSSSLGTQTYICNVNHKPSNTKVDKRV[here human IgG1 Fc without letters]
light: SYELTQPLSVSVALGQTARITCSGDAIGEKYVYWYQQKPGQAPVLVIYDDNNRPSGIPERFSGSNSGNTATLTISRAQAGDEADYYCASYDLQQARWVFGGGTKLTVLGQPKAAPSVTLFPPSSEELQANKATLVCLISDFYPGAVTVAWKADSSPVKAGVETTTPSKQSNNKYAASSYLSLTPEQWKSHRSYSCQVTHEGSTVEKTVAPTECS
Apparent FACS binding at 50 nM [2]: No binding
Apparent FACS binding at 50 nM [3]: No binding

Apparent FACS binding at 50 nM [1]: No binding
B5: ANTI-HUMAN ENTPD2 MAB10 (antibody)
heavy: B4 heavy with H57F, Q59R
light: B4 light
Apparent FACS binding at 50 nM [2]: No binding
Apparent FACS binding at 50 nM [3]: No binding

From US20220348651A1, “ENTPD2 ANTIBODIES, COMBINATION THERAPIES, AND METHODS OF USING THE ANTIBODIES AND COMBINATION THERAPIES” (Novartis AG, priority 2019, published 2022)
